Cytotoxicity call and growth inhibition call data for 27 molecules are collected here from the antibiotic and cytotoxicity screens of Wong et al. (2023).

Some of the results follow.

For test [1], the system named is HSkMC (human skeletal muscle cells). Kind of test: cytotoxicity call (relative viability < 0.9). The settings on record: 10 µM.
The test system of test [2] is HepG2. Kind of test: cytotoxicity call (relative viability < 0.9). The settings on record: 10 µM.
Test [3] relates to S. aureus RN4220. Kind of test: growth inhibition call (relative growth <= 0.2). The settings on record: 50 µM.

In the case of `O=C(NCc1ccccc1)OCCO`, the cytotoxicity call in test [1] and in test [2] was “inactive” in each case. The growth inhibition call in test [3] was “inactive”.

Regarding `Cc1noc(C)c1S(=O)(=O)Nc1ccc2c(c1)C(=O)N([C@H](C)CO)C[C@H](C)[C@@H](CN(C)C(=O)Nc1ccc(C(F)(F)F)cc1)OCCCC[C@H](C)O2`, the cytotoxicity call in test [1] and in test [2] was “inactive” throughout. The growth inhibition call in test [3] is “inactive”.

On to `C[C@H](CO)N1C[C@H](C)[C@H](CN(C)S(C)(=O)=O)Oc2ccc(NC(=O)Nc3ccc(C(F)(F)F)cc3)cc2C1=O`, for which the cytotoxicity call in test [1] and in test [2] was “inactive” in each case. For the same molecule, in test [3], the growth inhibition call was “inactive”.

`COc1ccc(NC(=O)Nc2ccc3c(c2)C(=O)N([C@H](C)CO)C[C@@H](C)[C@@H](CN(C)CC2CCCCC2)O3)cc1`: the cytotoxicity call in test [1] and in test [2] was “inactive” each time. Further, the growth inhibition call in test [3] is “inactive”.

On to `Cc1noc(C)c1NC(=O)N(C)C[C@@H]1Oc2c(NS(=O)(=O)c3ccccc3)cccc2C(=O)N([C@H](C)CO)C[C@H]1C`, for which the cytotoxicity call in test [1] and in test [2] was “inactive” each time. In addition, the growth inhibition call in test [3] was “inactive”.

For `COc1ccc(CN(C)C[C@@H]2OCCCC[C@H](C)Oc3ccc(NC(=O)NC(C)C)cc3C(=O)N([C@H](C)CO)C[C@@H]2C)cc1`, the cytotoxicity call in test [1] and in test [2] was “inactive” in each case. Besides, the growth inhibition call in test [3] is “inactive”.

`COc1ccc2c3c(n(c2c1)C)[C@@H](CO)N(CC1CCOCC1)C[C@]13CCN(CC1)C(=O)c1cnccn1`: the cytotoxicity call in test [1] and in test [2] was “inactive” each time. Also, the growth inhibition call in test [3] is “inactive”.

For `O=C(Cc1ccncc1)NCC[C@H]1CC[C@H](NC(=O)C2CCOCC2)[C@@H](CO)O1`, the cytotoxicity call in test [1] and in test [2] was “inactive” in each case. In test [3], the growth inhibition call is “inactive”.

For `CCCN(CCC)C(=O)C(CCC(=O)O)NC(=O)c1ccccc1` (stereo unspecified), the cytotoxicity call in test [1] and in test [2] was “inactive” in each case. Moreover, the growth inhibition call in test [3] is “inactive”.

For the molecule `CCC(=O)Nc1ccc2c(c1)C(=O)N(C)C[C@@H](OC)[C@@H](C)CN(C(=O)CN1CCOCC1)[C@@H](C)CO2`, the cytotoxicity call in test [1] and in test [2] was “inactive” throughout. In test [3], the growth inhibition call was “inactive”.

Take `CN(C)C(=O)C[C@@H]1CC[C@@H](NC(=O)C2CC2)[C@@H](CO)O1`: the cytotoxicity call in test [1] and in test [2] was “inactive” throughout. The growth inhibition call in test [3] is “inactive”.

On to `C[C@@H]1CN([C@@H](C)CO)C(=O)c2cc(NC(=O)Nc3ccc(C(F)(F)F)cc3)ccc2O[C@H]1CN(C)CC1CCCCC1`, for which the cytotoxicity call in test [1] and in test [2] was “active” throughout. For the same molecule, in test [3], the growth inhibition call is “inactive”.

`C[C@H]1CCCCO[C@H](CN(C)C(=O)Cc2ccccc2)[C@@H](C)CN([C@@H](C)CO)C(=O)c2cc(NC(=O)CCC(F)(F)F)ccc2O1`: the cytotoxicity call in test [1] and in test [2] was “inactive” each time. Also, in test [3], the growth inhibition call was “inactive”.

As for `C[C@@H]1CCCCO[C@H](CN(C)C(=O)NC2CCCCC2)[C@@H](C)CN([C@H](C)CO)C(=O)c2cc(NS(=O)(=O)c3ccccc3)ccc2O1`, the cytotoxicity call in test [1] and in test [2] was “inactive” throughout. In addition, the growth inhibition call in test [3] is “inactive”.

As to `COc1ccc(NC(=O)N(C)C[C@@H]2Oc3ccc(NC(=O)Nc4cccc5ccccc45)cc3CC(=O)N([C@@H](C)CO)C[C@@H]2C)cc1`, the cytotoxicity call in test [1] and in test [2] was “inactive” throughout. In addition, the growth inhibition call in test [3] was “inactive”.

Turning to `COCCOC(=O)N1C(=O)[C@@]2(c3ccccc31)[C@H](c1ccc(O)cc1)N1[C@H](c3ccccc3)[C@H](c3ccccc3)OC(=O)[C@H]1[C@@H]2C(=O)Nc1nc2ccccc2s1`, the cytotoxicity call in test [1] and in test [2] was “inactive” in each case. The growth inhibition call in test [3] is “inactive”.

Regarding `C[C@@H]1CN([C@H](C)CO)C(=O)c2cc(C#C[C@@H](C)O)cnc2O[C@H]1CN(C)C(=O)Nc1ccc(C(F)(F)F)cc1`, the cytotoxicity call in test [1] and in test [2] was “inactive” in each case. Moreover, in test [3], the growth inhibition call was “inactive”.

Consider `COc1ccc(S(=O)(=O)Nc2ccc3c(c2)CC(=O)N([C@H](C)CO)C[C@@H](C)[C@@H](CN(C)CC2CC2)O3)cc1`, for which the cytotoxicity call in test [1] and in test [2] was “inactive” in each case. The growth inhibition call in test [3] was “inactive”.

On to `N[C@H](CSCCB(O)O)C(=O)O`, for which the cytotoxicity call in test [1] and in test [2] was “inactive” throughout. For the same molecule, in test [3], the growth inhibition call is “inactive”.

On to `Cc1noc(C)c1NC(=O)N(C)C[C@@H]1OCCCC[C@@H](C)Oc2ccc(NC(=O)c3ccccc3)cc2C(=O)N([C@@H](C)CO)C[C@H]1C`, for which the cytotoxicity call in test [1] and in test [2] was “inactive” in each case. In test [3], the growth inhibition call is “inactive”.

As for `CN(Cc1cnc2nc(N)nc(N)c2n1)c1ccc(C(=O)N[C@@H](CCC(=O)O)C(=O)O)cc1`, the cytotoxicity call in test [1] was “inactive”. In test [2], the cytotoxicity call was “active”. In addition, the growth inhibition call in test [3] is “inactive”.

Consider `C[C@@H]1CN([C@H](C)CO)C(=O)c2cc(NS(=O)(=O)c3cccs3)ccc2O[C@H]1CN(C)Cc1ccc(Cl)c(Cl)c1`, for which the cytotoxicity call in test [1] and in test [2] was “inactive” each time. The growth inhibition call in test [3] is “inactive”.

Regarding `Cc1ccc(S(=O)(=O)Nc2ccc3c(c2)C(=O)N([C@@H](C)CO)C[C@@H](C)[C@H](CN(C)Cc2ccc(C(F)(F)F)cc2)O3)cc1`, the cytotoxicity call in test [1] and in test [2] was “inactive” throughout. In test [3], the growth inhibition call is “inactive”.

As for `C[C@@H]1CN([C@H](C)CO)S(=O)(=O)c2ccc(C#CC3(O)CCCC3)cc2O[C@@H]1CN(C)C(=O)c1ccncc1`, the cytotoxicity call in test [1] and in test [2] was “inactive” each time. For the same molecule, the growth inhibition call in test [3] is “inactive”.

`C[C@@H]1CCCCO[C@H](CN(C)C(=O)C2CCCCC2)[C@@H](C)CN([C@@H](C)CO)C(=O)c2cc(NC(=O)Nc3cccc4ccccc34)ccc2O1`: the cytotoxicity call in test [1] and in test [2] was “inactive” throughout. Further, in test [3], the growth inhibition call was “inactive”.

As to `C[C@H](CO)N1C[C@H](C)[C@@H](CN(C)Cc2ccc(C(=O)O)cc2)Oc2ccc(NC(=O)Cn3cnnn3)cc2C1=O`, the cytotoxicity call in test [1] and in test [2] was “inactive” each time. Further, in test [3], the growth inhibition call was “inactive”.

In the case of `C[C@@H]1CN([C@@H](C)CO)C(=O)c2cc(NC(=O)Nc3ccccc3)ccc2O[C@@H](C)CCCCO[C@H]1CN(C)S(=O)(=O)c1ccc(C(F)(F)F)cc1`, the cytotoxicity call in test [1] and in test [2] was “inactive” each time. Further, the growth inhibition call in test [3] was “inactive”.
